Hit rate of the full screen: of about 43,000 compounds, about 200 (0.47%) were called active. Roughly 12% stayed inconclusive and do not appear here. Calls follow the shape of the dose curve; as a rule, active = well fitted cell-killing curve with a large enough effect; inconclusive = small, poorly fitted or top-dose-only effect, or effect the other way; inactive = flat fitted curve, though single readings scatter. This is one part of the list.
assay: Cell viability qHTS assay in S16 Pmp22-F2sN cells; details: S16 Pmp22-F2sN Schwann cells viability, CellTiter-Glo, 24 h; series mostly up to 57.5 µM; activity change, negative = cytotoxicity: at the top concentration; also: nearly all actives have a fitted effect of over 65% in size
In short: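 S16 Pmp22-F2sN Schwann cells (500-1,000/well) in phenol-red-free DMEM with 10% FBS received 23 nL compound by pin tool for 24 h at 37 °C. Viability was then read as CellTiter-Glo luminescence after 15 min at room temperature.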
% is scaled to controls: 0 for no effect and ±100 for the full control effect.

Compound | activity change, negative = cytotoxicity
Cc1ccc(-n2ncc(C(=O)N3CCN(c4cccc(C)c4)C(C)C3)c2C2CCN(C(=O)OC(C)(C)C)CC2)cc1 (stereo unspecified) | inactive: -12.6%
COc1c(C)cc(S(=O)(=O)NCCc2c(C)[nH]c3ccccc23)c(C)c1C | inactive: -3.45%
Cc1ccc(Cl)cc1Nc1nc2ccccc2n2c(C)nnc12 | inactive: -3.81%
CCCOc1ccccc1Cn1c(=O)sc2ccccc21 | inactive: 6.46%
N#Cc1ccc(-c2cccs2)nc1SCc1ccc(Cl)cc1Cl | inactive: -0.633%
CCOc1ccc(NC(=O)N2CCOc3ccccc32)cc1 | inactive: -2.61%
CCc1ccccc1NC(=O)CSc1nnc(-c2nonc2NC(C)=O)n1C | inactive: -11.3%
Cc1[nH]c(=O)[nH]c(=O)c1C1N2CC3(C(C)C)CN1CC(C(C)C)(C2)C3=O (stereo unspecified) | inactive: 1.44%
CCOC(=O)c1ccc(NC(=O)CN2C(=O)c3cccnc3Oc3ccc(Cl)cc32)cc1 | inactive: -3.61%
Cc1ccc(N2CCn3c2nc2c3c(=O)n(CCc3ccccc3)c(=O)n2C)cc1C | inactive: 12.7%
Cc1cc(NS(=O)(=O)c2ccc(NC(=O)COc3ccc(Br)cc3C)cc2)no1 | inactive: -0.26%
CCCCc1nn2c(=O)cc(COC(=O)c3ccccc3NC(=O)C(C)(C)C)nc2s1 | inactive: -1.45%
COc1ccc(C(=O)Nc2ccc3nc4n(c(=O)c3c2)CCCCC4)cc1OC | inactive: 2.62%
Cc1ccc(Cl)cc1NC(=O)Cn1nc2c(cc1=O)CC(C)CC2 (stereo unspecified) | inactive: 9.66%
CCOc1ccc(NC(=O)CN2C(=O)COc3ccc(S(=O)(=O)Nc4ccccc4)cc32)cc1 | inactive: 4.1%
CC(C)Cn1c(=O)c2ccccc2n2c(-c3cccc(Cl)c3)nnc12 | inactive: 6.73%
COc1ccc(Cl)c(Cn2c(NCCN)nc3c2c(=O)n(C)c(=O)n3C)c1 | inactive: -0.141%
COc1ccc(C(=O)NCc2nnnn2-c2ccc(C)c(C)c2)cc1 | inactive: -11.6%
O=C(NNc1ncnc2c1cnn2-c1ccccc1)c1cccc(Cl)c1 | inactive: 6.62%
Cc1cc(Nc2cccc(Cl)c2C)n2nc(Cc3ccccc3)nc2n1 | inactive: -14.9%
CCN(CC)C(=O)CSc1nc2cc3c(cc2c(=O)n1Cc1ccc(C(=O)NCCc2ccc(OC)c(OC)c2)cc1)OCO3 | inactive: 6.1%

Compound | activity change, negative = cytotoxicity
CCOc1ccccc1NC(=O)Cn1c(=O)n(Cc2ccccc2)c(=O)c2c(C)c(C(=O)N(C)C)sc21 | inactive: 5.8%
COc1cc(Cl)c(C)cc1NC(=O)c1cn(CC(C)C)c(=O)c2cc(OC)c(OC)cc12 | inactive: 3.9%
COc1cc(CN(CC2CCCO2)C(=O)c2ccccc2F)cc(OC)c1OC (stereo unspecified) | inactive: 22.5%
CC(C)OCCCNC(=O)CCCn1c(SCC(=O)c2ccc(Br)cc2)nc2c(sc3ccccc32)c1=O | inactive: 23%
CC(NC(=O)c1ccccc1)c1nc2ccccc2n1Cc1ccc(Cl)cc1 (stereo unspecified) | inactive: 0.455%
CCC(C(=O)OCc1cc(=O)n2nc(CCOC)sc2n1)c1ccccc1 (stereo unspecified) | inactive: -8.1%
Cc1ccccc1NC(=O)c1nc(-c2ccncc2)no1 | inactive: -1.23%
COc1cccc(N2CCN(c3nc4ccc(C(=O)c5ccccc5)cc4n4c(C)nnc34)CC2)c1 | inactive: 7.29%
Cc1ccc(NC(=O)Cn2c(CCC(=O)O)ccc2-c2cccs2)cc1 | inactive: 2.15%
Cc1ccc(-n2ncc(C(=O)Nc3ccc(C)c(F)c3)c2C2CCN(C(=O)OC(C)(C)C)CC2)cc1C | inactive: 0.518%
CCOc1cc(C2c3c(oc4ccccc4c3=O)C(=O)N2Cc2ccc3c(c2)OCO3)ccc1O (stereo unspecified) | inactive: 5.67%
Cc1ccc(CNC(=O)CCCCn2c(=O)c3ccccc3n(Cc3ccc(Cl)cc3)c2=O)cc1 | inactive: 7.43%
Cc1nc2sc(C(=O)NCc3ccc(Cl)cc3)c(NC(=O)c3ccccc3)c2c(C)c1C | inactive: 0.278%
O=C(Nc1ccc2nc(SCC(=O)N3CCCC3)sc2c1)c1ccc(F)cc1 | inactive: 6.04%
Cc1ccc(NC(=O)NCc2cccn2Cc2ccccc2)cc1F | inactive: 2.65%
Cc1ccc(-c2cn3c(n2)sc2cc(C(=O)N4CCCCC4)ccc23)cc1 | inactive: -11.4%
Cc1cc(C)c2c(=O)cc(C(=O)Nc3ccc(S(=O)(=O)Nc4nc(C)cc(C)n4)cc3)oc2c1 | inactive: 5.63%
COC(=O)C(C)Sc1nc2c([nH]c3ccccc32)c(=O)n1-c1ccc(OC)cc1 (stereo unspecified) | inactive: 20.8%
COc1ccc(OC)c(NC(=O)c2csnn2)c1 | inactive: -0.861%
CCOc1ccccc1-c1nnc(SCc2ccc(Cl)cc2)o1 | inactive: -1.53%
COCCCNC(=O)c1cc(-c2cccnc2)nc2ccccc12 | inactive: -0.0657%

Compound | activity change, negative = cytotoxicity
COc1ccc(-n2c(SCC(=O)N3CCC(C)CC3)nc3c([nH]c4ccccc43)c2=O)cc1 | inactive: 2.55%
CC1=C(C(=O)Nc2ccc(C)cc2C)C(c2sccc2C)n2ncnc2N1 (stereo unspecified) | inactive: 6.86%
COc1ccc(CNC(=O)c2ccc3c(c2)N(Cc2ccccc2)C(=O)c2ccccc2S3(=O)=O)cc1 | inactive: 0.704%
COc1ccc(-c2cc3nc(C4CCN(C(=O)OC(C)(C)C)CC4)c(C(=O)Nc4cc(Cl)cc(Cl)c4)cn3n2)cc1 | inactive: 0.825%
CCOc1ccccc1N(C)C(=O)c1nn(-c2ccc(C)cc2)c(=O)c2c1c1ccccc1n2C | inactive: 3.92%
Cc1ccc2occ(CC(=O)Nc3nnc(C(C)C)s3)c2c1 | inactive: -4.65%
O=C(Nc1nnc(S(=O)(=O)N2CCCc3ccccc32)s1)c1ccccc1Br | inactive: 2.15%
CCOc1cccc(C2c3c(oc4ccccc4c3=O)C(=O)N2c2nc(C)c(C(=O)OC)s2)c1 (stereo unspecified) | inactive: -0.256%
CCCN(CCC)C(=O)Cn1c(=O)n(Cc2ccc(C(=O)NCCc3ccc(OC)c(OC)c3)cc2)c(=O)c2ccccc21 | inactive: -0.0806%
CCCN(C(=O)c1cc2c(Cl)nc3ccccc3c2s1)c1cccc(C)c1 | inactive: 19.9%
COc1cc(C(=O)NCC(c2cccnc2)N2CCN(c3ccc(F)cc3)CC2)cc(OC)c1OC (stereo unspecified) | inactive: 10.3%
Cc1nn(-c2ccc3nncn3n2)c(C)c1CCC(=O)Nc1ccc(OC(F)(F)F)cc1 | inactive: -3.34%
COc1cccc(-c2nnc3n(Cc4ccc(F)cc4)c(=O)c4ccccc4n23)c1 | inactive: -23%
CC1=C(C(=O)Nc2ccc(C)cc2C)C(c2ccccc2C)n2ncnc2N1 (stereo unspecified) | inactive: 4.31%
COc1ccc(CCNC(=O)NCc2noc3ccccc23)c(OC)c1 | inactive: 2.85%
CN(C)c1ccc(C(CNS(=O)(=O)c2ccc(Cl)cc2)N2CCCC2)cc1 (stereo unspecified) | inactive: -3.1%
COc1ccccc1CNC(=O)C1CCN(Cc2nc(-c3ccc(OC)c(OC)c3)oc2C)CC1 | inactive: -1.13%
Cc1ccccc1CNC(=O)c1ccc(-n2c(C)cc3c2CCCC3)cc1 | inactive: -4.93%
Cc1ccc(-c2cc3ncc(C(=O)c4cc([N+](=O)[O-])ccc4O)cn3n2)cc1 | inactive: -19.5%
